Measurements from the supplement of paper PMC11417369.
Some of the results follow.

The sequences below were run on PfHDP1 homeodomain (GST-tagged) (assay: gcPBM binding intensity (ln(normalized median fluorescence intensity)); higher = stronger DNA binding).
Method in brief: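 An Agilent 4 × 180k array carrying primer-extended double-stranded 36-bp intergenic genomic probes and negative controls received GST-tagged P. falciparum DNA-binding domains expressed in E. coli, about 25 μg on average, for 1 h. The binding buffer contained 1× PBS, 1% milk, 0.2 mg/ml BSA, 0.5% salmon testes DNA and 0.03% Triton X-100. Binding intensity is the top Masliner-normalised natural-log median intensity across replicate spots of either probe orientation, read after Alexa488 anti-GST antibody staining and a 488 nm scan.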

In order of falling “gcPBM binding intensity (ln)” value:
1. CTAATATCTGTATGCACACACAATAAATACATATTT [CACACA_site5797]  9.73
2. TACTATTATAAATATGTGCACTTCAATAATATACTA  9.53
3. TTCTCATCCTTACATACACACACATATATATATATA [CACACA_site7914]  9.31
4. TATAATCATAAATACACACACATATATATATATATA [CACACA_site5224]  9.31
5. ATATTTGCCCAAGATAGTACATATATATATATATAT [XGTACX_site7756]  9.3
6. AGACATATAATATATACACACATATATATATATATA [CACACA_site1066]  9.29
7. TATATATATATATATTGTACATATATTATTATATAT [XGTACX_site7447]  9.22
8. CGTTTCCCCAATGGTTGTACAATATATATATATATA [XGTACX_site8641]  9.12
9. TCTTTTTCTTGACGAGTGCAAAAATTGTGTTTGAAA  9.06
10. ATATAATATTTATATGCACACTTTTCTATATATAAG [CACACA_site6100]  8.84
11. AAGGAAGATATATACACACATACAAATATATATATA [CACACA_site2181]  8.6
12. TTAACATATTTGTTAGTGCATTTTGATATTACACAT [GTGCAC_site9978]  8.55
13. ATATTGGAGCACAACACACACAAGTATATATATGGA [CACACA_site1546]  8.52
14. ATATATATATGTATATGTACATATATATGGTAACTC [XGTACX_site681]  8.37
15. AAATAGCCAAAAATCATGCACACCTAAAAAAAAAAA [CACACA_site2572]  8.16
16. TTATTCTAGTAGTGTGTGCGCATGGACAATGCAATA  7.48
17. TTGGATGATTAAGGGGGACACACGTTTATATATTTA [CACACA_site338]  7.3
18. CACATACAGACATACACACACATATATATTAATATA [CACACA_site546]  7.24
19. ATATTTTATTTATATACACACACATATATATATTAT [CACACA_site8177]  7.22
20. GTTCAATTATTTTTATGTACATATATTTTTTTCTTT [XGTACX_site2505]  7.13
21. AAGAAAAAATAAAGCACACAAATATTTTAAAAACAC [CACACA_site3325]  7.12
22. CATACATACAAACACACACACACACCGATATATATA [CACACA_site8952]  7.1
23. ATTATATATCCCTATTCACACATGTATTATATAAAT [CACACA_site5486]  7.06
24. CTTAGGTTAAAAGTGTGTACATAAAAACATATATAA [XGTACX_site2213]  6.95
25. ACTTTTTTAATGTTACGTACACATAAATAATAATTA [XGTACX_site8092]  6.94
26. GTTACACCAACAAACACACACACACCGACACCCAAA [CACACA_site5361]  6.93
27. TACAGATACAGATACACACACACACCGAAATAAATA [CACACA_site4865]  6.92
28. ATGTTTTATAAAAGGCGTACACATATATTTAAGTAA [XGTACX_site6231]  6.85
29. TTTATTTATTTAATTACACACGAACATATAACCATT [CACACA_site7952]  6.8
30. TTCATTCTATAAAACACACAAATATTTTTGTATCCC [CACACA_site6458]  6.78
31. AAAATAAAAAGAAAAAGAAAAAAGGGGGGGTAGGGG [CACACA_negctrl_site1048]  6.78
32. TTGTGTTTTATTATTTTATTATTACTATTATAATGT [GTGCAC_negctrl_site484]  6.77
33. TTAAAGTAGAGAAAATGTACATTTTATTAACACAAT [XGTACX_site6369]  6.76
34. CCTATATTAAAACAAGCACACAATCGCATAATATCC [CACACA_site9052]  6.75
35. TTTTGTGATCTTACCACCTTTCATAATATTAATAAA [GTGCAC_negctrl_site360]  6.72
36. ATTTATAATATGTATACACACACATATATAAATATA [CACACA_site8729]  6.7
37. ATCAACATCTAACATTGTACATGTGATGTGTAAAAG [XGTACX_site547]  6.69
38. TATAAACATAAATATACACACAAACATATATGTATT [CACACA_site8324]  6.68
39. TAAATTCCTACATACGCATGTACATTAAAATTTTAA [TGCATGCA_site215]  6.68
40. AAAAAAAAAATATACACACACATATAAATATAAATA [CACACA_site7574]  6.68
41. TATATGAAGTACACAATACACACTAATTATATATAA [CACACA_site2608]  6.68
42. AAAAAAAAAAAACACACACACAAATACAAATGGTAA [CACACA_site1720]  6.64
43. AATACATATCAAAGCTGTACAAAGTAAATTTTACTT [XGTACX_site3525]  6.64
44. ATATATTTTAATGATACACACAAGAAATAAAATTAC [CACACA_site5671]  6.63
45. CTTTATATAAAATAAAGTACATAAATTATGATATAT [XGTACX_site3699]  6.63
46. ATAAAACATAAATACATACACACATAATATATATTA [CACACA_site110]  6.63
47. ATATATTTTTTGAATACACACATATTATATGTAATA [CACACA_site1256]  6.61
48. AAATTGGGGCTTGTTACACACTTAGTGTGAGTTCTA [CACACA_site6417]  6.6
49. ACAAATGAGATTATATGTACACATAACAAATTTACA [XGTACX_site3496]  6.54
50. ATAAGAAAAAGACACACACACAAAAAAAAAAAAAAA [CACACA_site2828]  6.54
51. AAGTTATTGATATATACACACAAATATAAATAATAT [CACACA_site6695]  6.53
52. ACATATTTAAAAACATGTACAAATATATTTATAATT [XGTACX_site661]  6.52
53. TATATATCGTTATATACACACATGTATATAAAAAAT [CACACA_site7501]  6.5
54. TTTTTTCTTTTTTTTTGTACATATAATATTTATGTT [XGTACX_site302]  6.5
55. TATATAATAAAAAAAAGTACTTGGACAATATTATTT [XGTACX_site2802]  6.47
56. ATTTATTTTATATGTTGTACAAACATTTTAAAACAT [XGTACX_site6919]  6.47
57. ATACATATAATATATGCATGTACCAATCAAATATAT [TGCATGCA_site192]  6.46
58. TGTAATGTTTACAACACACAAATTAGAAATACAAAA [CACACA_site6924]  6.46
59. ATCAAAATATTTATATGTACATATTAAAAATATAGA [XGTACX_site725]  6.41
60. AAATGTAAAATTTTATGTACATATATTTATATAATA [XGTACX_site3737]  6.39
61. AATTCTCTTAATAAATAAACACAAATAAATAATAAA [GTGCAC_negctrl_site499]  6.39
62. GAAAAATTAAAAATAACACACACATATATATATTTA [CACACA_site8896]  6.38
63. TTATTTATAATGTTGTGTACATATATGAATATACCA [XGTACX_site3111]  6.38
64. AAGGAAATATAATATACACACATAAGTGTACTTATA [CACACA_site4030]  6.35
65. TTTTTTTAAAGAATTATCATAAAATGATTGCATCAT [XGTACX_negctrl_site141]  6.34
66. TAATAAAGTGAATAATGTACATTTTATTTATTATAT [XGTACX_site6614]  6.31
67. TATTTTACGTATTGTTGTACTTGAAACAAATATACA [XGTACX_site8778]  6.31
68. TTTTTTCAATTGGAAATTATTTTACAATGAAGGGTA [XGTACX_negctrl_site469]  6.31
69. AAAAAAATTAAATGTACACACACCTTAAACAATGTC [CACACA_site1855]  6.3
70. TTCAATAGGTATAATTGTACTTAATAATATATTGTT [XGTACX_site8363]  6.3
71. ATAGAACAATTCAGAAGTACATAAAAAGAAAAATTT [XGTACX_site3015]  6.28
72. ATACATTCAATGAAATGTACGTTTATTTACAGAAGA [XGTACX_site2999]  6.28
73. TAAAAATGGGTATGTACACACTTTATTTTTAATACA [CACACA_site5404]  6.26
74. ATAAATAAATAAATAAATAAATAAATAAATATATAT [CACACA_negctrl_site1728]  6.24
75. TAAAATATTATTTATTTACACACCAATCTTCTTTTC [CACACA_site9320]  6.24
76. TCGTATTTAAAATGTAGTACATAATTTGAAAAATAA [XGTACX_site5832]  6.24
77. TAATTTTTTTTTATGATACACACTTGGATAATTAAA [CACACA_site562]  6.22
78. TAATGGTTATCACTAACATGCAGTAATATTATATAG [TGCATGCA_site176]  6.2
79. CTTTAAGTTATATGAAGTACAATTTAAAAAAATGAA [XGTACX_site358]  6.2
80. TCAGTAATACTTGAATGTACTTATATTGTTTGTTTG [XGTACX_site6449]  6.17
81. AATGCCTTGTTGAGGTGTACTGAATGTTATTTTAAT [XGTACX_site3255]  6.16
82. TAAATAAATTATTTTCGTACTTATTTATTTTAATTA [XGTACX_site283]  6.16
83. TTAATTTACATGAACTGTACATAACATTTTTTTAAA [XGTACX_site4672]  6.15
84. TTTCACAAATGATATAGTACTTTTTATTATTAACAT [XGTACX_site7976]  6.12
85. TTCTTTATATACAAACCAAAATATTATGTATAATAA [CACACA_negctrl_site15]  6.12
86. AAATAAAAAACAGTGGCACACATTATGTATCCACCT [CACACA_site3756]  6.07
87. TAAAAAAAAAAAAAAGTACACACTTATAAAATATTA [CACACA_site872]  5.96
88. TTATTATATATTTTATTTATTAATAGTATATATTAT [TGCATGCA_negctrl_site155]  5.86
89. AAAAGAAAAAAAAAAAAAAAAAAAATTAAAATATAA [CACACA_negctrl_site17]  5.65
